Test results published in the supplement of paper PMC3334620.
Over roughly 33,000 sequences, “E-score (-0.5 to 0.5)” has its median near -0.041; the highest 2% begin near 0.37. Some of the results follow.

Target: T1, Ecm22 (UniProt Q05958)
T1 sequence: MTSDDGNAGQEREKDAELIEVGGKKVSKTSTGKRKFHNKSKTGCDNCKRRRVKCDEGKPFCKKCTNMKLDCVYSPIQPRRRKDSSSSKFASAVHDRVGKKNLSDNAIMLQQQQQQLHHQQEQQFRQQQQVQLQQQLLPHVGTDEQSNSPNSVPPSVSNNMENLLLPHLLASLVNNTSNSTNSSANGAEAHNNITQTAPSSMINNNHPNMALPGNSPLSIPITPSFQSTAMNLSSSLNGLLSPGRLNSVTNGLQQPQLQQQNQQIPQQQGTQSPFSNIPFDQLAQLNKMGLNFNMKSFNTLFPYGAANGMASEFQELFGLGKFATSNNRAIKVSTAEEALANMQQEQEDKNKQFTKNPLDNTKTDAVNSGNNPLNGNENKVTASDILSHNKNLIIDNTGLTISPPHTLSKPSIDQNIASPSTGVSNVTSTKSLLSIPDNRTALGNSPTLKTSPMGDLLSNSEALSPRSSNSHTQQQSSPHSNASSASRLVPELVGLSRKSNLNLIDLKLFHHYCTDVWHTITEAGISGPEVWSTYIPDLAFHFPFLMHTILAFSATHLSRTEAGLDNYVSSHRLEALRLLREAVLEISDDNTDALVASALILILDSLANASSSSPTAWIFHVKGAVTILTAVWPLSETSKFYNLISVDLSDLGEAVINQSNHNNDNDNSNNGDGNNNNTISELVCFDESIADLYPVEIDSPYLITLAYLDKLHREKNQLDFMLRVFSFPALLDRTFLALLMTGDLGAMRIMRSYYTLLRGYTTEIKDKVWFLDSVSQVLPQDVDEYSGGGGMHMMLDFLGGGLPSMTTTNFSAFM
Test: PBM E-score (8-mer binding enrichment) (E-score (-0.5 to 0.5)); higher = stronger / more preferred TF binding; most listed sequences are background and not binding sites
Details: protein concentration: 200 nM; construct: GST-full length
In short: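 The E-score, a modified Wilcoxon-Mann-Whitney statistic, was computed by the Universal PBM Analysis Suite for every ungapped eight-base word pooled with its reverse complement. Scans behind it were normalised with masliner after bound GST-tagged yeast transcription factors were detected with fluorescent anti-GST. The proteins, at about 100-200 nM, had been applied to universal all-10-mer Agilent arrays made double-stranded by primer extension.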

Row | Sequence | PBM E-score
1 | AGCTTGAG | -0.194
2 | GTGGCTCA | -0.251
3 | ATCTCCAG | -0.156
4 | AAAATCTG | -0.0871
5 | TAGTAGCA | 0.117
6 | CGCTTCCC | 0.169
7 | CGTATGAG | 0.354
8 | ATCTGTGA | -0.0254
9 | AAAGCACC | -0.135
10 | GATGGGCA | -0.0653
11 | CAAGTCAA | -0.126
12 | TAATGCTA | -0.208
13 | ACAGTCCA | -0.196
14 | ACAAGAGG | -0.185
15 | GGTTCCTA | -0.128
16 | CACGTCGA | -0.0843
17 | AGGTAGGC | -0.22
18 | AGCACTAA | 0.0469
19 | CATTGAGG | -0.15
20 | CCTTGGTA | -0.0661
21 | AGTTCTCC | -0.164
22 | GCTTGTAA | -0.00771
23 | CTAAATCC | 0.164
24 | ATCCATGG | -0.168
25 | CGGGATTC | 0.211

Row | Sequence | PBM E-score
26 | CTTTGGTC | -0.0249
27 | AACGCTAA | 0.0112
28 | ATGTTTCA | -0.0169
29 | GAAGGGAC | -0.144
30 | AAGACCAT | -0.162
31 | CCGGGACC | -0.0626
32 | CTCACAAG | -0.25
33 | CGTATATA | 0.444
34 | GAGATCAA | 0.0365
35 | AAGCTGAT | -0.154
36 | CCCCGAAG | -0.171
37 | CCTATAGA | -0.0855
38 | CACAGCAC | -0.184
39 | ACAAGTAC | 0.197
40 | GGCTACAC | -0.0237
41 | AGGACAAG | 0.00262
42 | AATTTTCG | 0.07
43 | GGATCAAA | -0.0427
44 | GGATCGCC | 0.0498
45 | AAAGACGA | 0.0718
46 | AGGGAGAG | -0.207
47 | GACAGGTA | -0.0754
48 | CATCTCCG | 0.0419
49 | AAGCCACA | -0.109
50 | CCCACTCC | -0.145

Row | Sequence | PBM E-score
51 | ATTCTTCC | -0.227
52 | GCACACCA | -0.094
53 | CCGCCATA | -0.0249
54 | ATGTCTGC | -0.154
55 | AACGACCC | 0.386
56 | GCACTATA | 0.196
57 | GTCCATTA | 0.0272
58 | CCCGGAGC | 0.0701
59 | TCGCGTCA | 0.0567
60 | CACAGACA | -0.147
61 | CCGATAAA | -0.0442
62 | GGGTGATA | 0.032
63 | CTCCTAAG | -0.35
64 | AGGGGCCG | -0.255
65 | ATGCATTG | -0.0737
66 | CGCGATAA | 0.0651
67 | CAGATGGA | 0.0554
68 | ACTACACA | 0.154
69 | TGACAGAA | 0.0256
70 | ATGAAAAC | 0.155
71 | AACAGGTC | 0.0282
72 | GATATACA | 0.0768
73 | ACTCCGTG | -0.233
74 | ACCTTGTC | -0.171
75 | AGAGTTCC | -0.101

Row | Sequence | PBM E-score
76 | AGAGTCCG | -0.0869
77 | AAACTGGG | -0.243
78 | ATTACGCA | 0.0632
79 | CTATGCCC | 0.00213
80 | ATTCCATG | -0.0307
81 | AAACCTCT | -0.177
82 | CGAGGTCC | 0.134
83 | GACCATCC | -0.0932
84 | TAGTGTCA | -0.0182
85 | AGAATCCT | -0.317
86 | AGCTTCAA | -0.153
87 | TCCCGGAA | -0.081
88 | ATTCACCC | -0.123
89 | ATTTTAAC | 0.117
90 | AAGACAGC | -0.272
91 | CGAGAGAA | 0.197
92 | CGAGGCAC | 0.148
93 | CCGTAATA | 0.228
94 | CTCGTTTC | 0.453
95 | GGAATTAC | 0.195
96 | AATAGGAT | -0.00412
97 | CGCTCTCA | 0.0445
98 | TACGTTGA | 0.208
99 | AGAACTCC | -0.0233
100 | GAGGTTGC | -0.0862

Row | Sequence | PBM E-score
101 | GTGGGGTA | 0.0596
102 | ACTCGTTG | 0.274
103 | AACATGAA | -0.016
104 | TGTTCGAA | 0.168
105 | GAAATCGA | -0.0317
106 | CCCTTCGA | -0.367
107 | ATTACATG | -0.0576
108 | ATGACGGG | -0.125
109 | CATGGAAG | -0.0835
110 | AAGCAATC | -0.0922
111 | AAAGTAGC | -0.0576
112 | ACTCTGTA | -0.0847
113 | AAGTTTTA | 0.0756
114 | GTTCGAAA | 0.116
115 | ATAGGTTC | 0.00586
116 | AACCCCCT | -0.265
117 | CGTTATCA | 0.0306
118 | TACAGTAA | 0.0166
119 | CTTATGAA | 0.00198
120 | CCCGGCGA | 0.00449
121 | CCCCTAAC | -0.155
122 | CATCACAG | -0.211
123 | ACGCGAGA | 0.281
124 | GCAAACGA | 0.433
125 | CTATCTTC | 0.0561

Row | Sequence | PBM E-score
126 | GAGCAAAC | 0.0713
127 | AGGACTAT | -0.265
128 | GAAGCGGA | 0.0159
129 | CCAACGCG | 0.113
130 | AACGCCAT | -0.197
131 | ATGACCAT | -0.00468
132 | CACGAAGG | 0.0498
133 | AACGACGT | 0.435
134 | CTGCATGA | -0.259
135 | GGAACCGA | 0.29
136 | CATTGACA | -0.299
137 | AGTATATG | -0.0215
138 | CCCTCGTA | 0.477
139 | AGGGCGTG | -0.0786
140 | CGCCCGGC | -0.291
141 | AAGATTCC | -0.0838
142 | GCTGAACC | 0.00818
143 | ACACCCGA | 0.132
144 | ATGAAATC | -0.0184
145 | GGAGTACC | -0.167
146 | CCAATGAA | -0.113
147 | CCCCCTAC | -0.387
148 | CGTGTATC | 0.109
149 | ACCACTGA | 0.0134
150 | ATATAGTC | 0.132

Row | Sequence | PBM E-score
151 | CCCATAGG | -0.18
152 | CACATTCC | -0.0999
153 | GTATCAAA | 0.0901
154 | CCTTGGCA | -0.345
155 | ACTTAAAA | -0.11
156 | ATGCGCGC | 0.113
157 | GTTATCGA | 0.0984
158 | ACGGTTGC | 0.0608
159 | AAGGGGCC | -0.211
160 | CGGCTATC | 0.059
161 | CTGGCCAA | -0.193
162 | AGTTATTG | -0.0847
163 | CACCTCGC | 0.144
164 | CAAGCGTA | 0.129
165 | AAGCCCTA | -0.0456
166 | CCCTGCAA | -0.112
167 | CTTAACAC | -0.12
168 | ACGGGAGT | 0.206
169 | AGGCAGAG | -0.165
170 | AACTATTC | -0.00524
171 | ATCTTTTC | -0.0858
172 | TGTGGAAA | -0.026
173 | GGTGGTCA | -0.241
174 | ACTCCACC | -0.142
175 | AGAGAACA | -0.11

Row | Sequence | PBM E-score
176 | ACATAGCC | -0.282
177 | ATTCCCGC | -0.0217
178 | CCCGCTGA | -0.32
179 | AGGAGCCG | -0.0656
180 | CCCTATTC | -0.0484
181 | CCTAAGAG | -0.13
182 | ACTTGGGC | -0.318
183 | AGAGAACC | -0.155
184 | TGGCCCCA | -0.21
185 | AGTCACGC | -0.195
186 | CCGATCGA | 0.0683
187 | ACCTGCCT | -0.116
188 | CTAGATAG | -0.0351
189 | ATACGGAA | 0.374
190 | TCCCAGGA | -0.248
191 | GATAGAAA | -0.0382
192 | GAATTCCA | -0.108
193 | AAATCTTC | -0.0321
194 | CCCGGTCC | -0.0361
195 | CACGTGGG | -0.149
196 | AGAAAATA | 0.0171
197 | TTAAGAAA | -0.0929
198 | AAAAATAA | 0.115
199 | GCTCAAGC | -0.0228
200 | CCGTAGAA | 0.122

Row | Sequence | PBM E-score
201 | ACCGCGAC | 0.0412
202 | GGACGCTA | -0.177
203 | AAGCTTGC | -0.144
204 | GGCCCATA | -0.179
205 | AGGTAGAG | -0.266
206 | CGGCAGTA | -0.0667
207 | ACAGCGAC | 0.0281
208 | ATTCCCGG | -0.114
209 | AGATACTG | -0.0213
210 | ACTCTCAC | -0.0437
211 | AATTGCGT | 0.0718
212 | CATAATAA | 0.175
213 | CCTGAATA | 0.101
214 | CACACAGC | -0.0697
215 | AATATTGC | 0.247
216 | AATGACGA | 0.0411
217 | CCTTGTCA | -0.245
218 | AGCGCTCA | -0.133
219 | AAATGTGA | -0.175
